The whole screen tested about 44,000 compounds, of which about 340 (0.77%) were called active. Inconclusive means that the source gave no clear call. Such entries were picked first, then a sample of the others. Calls come from the whole dose curve; as a rule, active = well fitted inhibition curve with a large enough effect; inconclusive = small, poorly fitted or top-dose-only effect; inactive = flat fitted curve, though single readings scatter. No potency is given beside an inconclusive call; the fits are too rough.
Experiment: Acumen qHTS Assay for Inhibitors of the mTORC1 Signaling Pathway in MEF (Tsc2-/-, p53-/-) Cells: Sytravon; note: nearly all actives have a fitted effect of over 50% in size
Conditions: phospho-rpS6 immunofluorescence/PI, 24 h; series mostly up to 38.3 µM
Summary of the method: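 Tsc2-/-, p53-/- MEFs (empty-vector stable line) in DMEM + 10% FBS were treated with compounds 24 h at 37 degree Celsius, fixed, and immunostained for phospho-rpS6 (Alexa-488) with propidium iodide counterstain. Laser-scanning cytometry gave % positive cells, normalized against 7.5 nM rapamycin and DMSO.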
For `CCN1CCN(c2ncc3c(n2)CCN(Cc2ccc(Br)s2)C3)CC1`, the Potency was “inactive”. In the case of `COc1ccc(OC)c(-c2cc(C(=O)Nc3cnn(Cc4ccc(Cl)cc4Cl)c3)no2)c1`, the Potency is reported as inconclusive [falling, partial curve, poor fit]. With `CCc1ccc(-c2[nH]nc3nc(-c4ccc(OC)cc4)cc(C(=O)NCCc4ccc(OC)c(OC)c4)c23)cc1` the Potency was inconclusive [falling, partial curve, poor fit]. In the case of `COc1ccc(CC(=O)NCC(c2ccc(N(C)C)cc2)N2CCOCC2)cc1` (stereo not given), the Potency is reported as inconclusive [activator, single point]. In the case of `CCCNC(=O)N1[C@H](c2ccc(C)s2)[C@@H](C)C(=O)[C@@H](C)[C@@H]1c1ccc(C)s1`, the Potency is reported as inconclusive [falling, partial curve, poor fit]. For `COc1ccc(C)cc1NC(=O)NCc1ccc2c(c1)CCN2C(=O)c1ccccc1`, the Potency was inconclusive [falling, partial curve, poor fit]. For `Cc1ccc(NC(=O)Cn2c(=O)n(Cc3ccco3)c(=O)c3ccc(C(=O)NC4CCCC4)cc32)c(C)c1`, the Potency was “inactive”. With `Cc1nc2sccn2c(=O)c1S(=O)(=O)Nc1ccc(N2CCOCC2)c(Cl)c1` the Potency was “inactive”. In the case of `COc1ccc(CNC(=O)CCCN2C(=O)CSc3c2c(C)nn3-c2ccccc2)cc1`, the Potency is reported as inconclusive [falling, full curve, poor fit]. In the case of `CCN(CC)CCNC(=O)C1CCN(c2nn3cc(-c4ccc(F)cc4)nc3s2)CC1`, the Potency is reported as inconclusive [falling, single point]. In the case of `COc1cc(NC(=O)c2cccc3c2C(=O)N(C2CCCCC2)C3)cc(OC)c1OC`, the Potency is reported as active: 14.7 µM. For `Cc1cccc(N2CCN(CCNC(=O)Nc3ccc(Cl)cc3)CC2)c1C`, the Potency was active: 18.5 µM. For `COc1cc(C(=O)n2nc(C)c(Sc3ccc(Cl)cc3)c2C)cc(OC)c1OC`, the Potency was active: 10.4 µM. In the case of `CCCCOc1ccccc1CC1C(=O)Nc2ccc(Br)cc21` (stereo not given), the Potency is reported as inconclusive [falling, single point]. With `CCc1nnc2c(N3CCN(c4cc(Cl)ccc4C)CC3)nc3ccccc3n12` the Potency was “inactive”. With `Cc1ccccc1NC(=O)Cn1cc(C(=O)c2cccs2)c2ccccc21` the Potency was “inactive”. For `CCc1ccc(NC(=O)CSC2=Nc3ccccc3C3=NC(CCC(=O)NCc4ccccc4)C(=O)N23)cc1` (stereo not given), the Potency was “inactive”. With `CCCCC(=O)OC1=C(C(=O)c2ccccc2)N(CCC)S(=O)(=O)c2ccccc21` the Potency was inconclusive [falling, single point]. In the case of `O=C(c1cnn(-c2ccc(F)cc2)c1-n1cccc1)N1CCN(c2ccc(F)cc2)CC1`, the Potency is reported as “inactive”. For `COc1ccc(CC(=O)Nc2sc3c(c2C(=O)Nc2ccccc2)CCCCC3)cc1`, the Potency was active: 4.65 µM. With `O=S(=O)(NCCS(=O)(=O)N1CCN(c2ccccc2)CC1)c1ccc(Br)cc1` the Potency was “inactive”. With `O=C(Nc1ccc(F)cc1)c1csc2c1CCCCC2` the Potency was inconclusive [falling, single point]. In the case of `COc1ccc(OC)c(CNC(=O)c2ccc(Sc3ccc(C)cc3)c(N)c2)c1`, the Potency is reported as inconclusive [falling, partial curve, poor fit]. For `CC(=O)N1CCc2c(sc(NC(=O)CSc3ccccc3)c2-c2nc3ccccc3s2)C1`, the Potency was “inactive”. For `CCCCNc1nc2c(c(=O)n(C)c(=O)n2C)n1CC(O)COc1ccccc1C` (stereo not given), the Potency was “inactive”. For `O=C(O)c1cccc(Nc2ncnc3ccc(Br)cc23)c1`, the Potency was “inactive”. In the case of `Cc1ccc2cc(CN(C)C(=O)c3cccc(Cl)c3)c(=O)[nH]c2c1`, the Potency is reported as “inactive”. In the case of `Cc1ccc2onc(CC(=O)Nc3cccc(C(F)(F)F)c3)c2c1`, the Potency is reported as inconclusive [falling, single point]. In the case of `CCOc1ccc(N2C(=O)c3n[nH]c(-c4cccs4)c3C2c2cccc(F)c2)cc1` (stereo not given), the Potency is reported as inconclusive [falling, single point]. For `CCc1ccc(NC(=O)c2ccc(F)c(S(=O)(=O)NCc3ccc(Cl)c(Cl)c3)c2)cc1`, the Potency was inconclusive [falling, single point]. With `COc1ccc(NC(=O)c2ccco2)cc1NC(=O)COc1ccc(Cl)c(C)c1` the Potency was inconclusive [falling, single point]. For `CCOc1ccc(-n2nc(CO)c(C(=O)NCc3cccs3)n2)cc1`, the Potency was inconclusive [falling, single point]. For `Cc1cccc(NC(=O)c2cc3c(=O)n4cccc(C)c4nc3s2)c1C`, the Potency was inconclusive [falling, partial curve, poor fit]. For `COCCCn1c(=N)c(C(=O)NCc2ccco2)cc2c(=O)n3ccccc3nc21`, the Potency was “inactive”. In the case of `CCCN(CCC)CC(O)Cn1cc(/C=C/C(=O)c2ccc(C)cc2)c2ccccc21` (stereo not given), the Potency is reported as “inactive”. For `CC(=O)c1ccc(NC(=O)CN2C(=O)CCc3ccccc32)cc1`, the Potency was inconclusive [falling, single point]. For `O=C(Cn1cc(SCc2ccc(C(F)(F)F)cc2)c2ccccc21)N1CCOCC1`, the Potency was inconclusive [falling, partial curve, poor fit]. In the case of `Cc1ccc(OCC(=O)Nc2cccc(-c3nc4ccccc4s3)c2)cc1`, the Potency is reported as “inactive”. With `COc1ccc(CCCc2nnc(SCC(=O)Nc3cccc(C)c3)o2)cc1` the Potency was inconclusive [falling, full curve, poor fit]. In the case of `Cc1ccc2[nH]cc(C(c3ccccc3)c3ccc(C)s3)c2c1` (stereo not given), the Potency is reported as inconclusive [falling, single point]. In the case of `CCOc1ccccc1NC(=O)C1=C(C)Nc2ncnn2C1c1ccc(NC(C)=O)cc1` (stereo not given), the Potency is reported as “inactive”. With `CC(C)(C)C1CCc2nc(NC(=O)c3ccc([N+](=O)[O-])cc3)sc2C1` (stereo not given) the Potency was “inactive”. For `COc1ccc(Cl)cc1S(=O)(=O)Nc1cccc(-c2ccc(N3CCCC3)nn2)c1`, the Potency was “inactive”. In the case of `COc1ccc(CCNC(=O)c2nc(SCc3ccccc3F)ncc2Cl)cc1OC`, the Potency is reported as “inactive”. For `CCOC(=O)N1CCN(Cc2nc3cc(NC(=O)c4ccc([N+](=O)[O-])cc4)ccc3n2C(C)C)CC1`, the Potency was inconclusive [falling, partial curve, poor fit].
Potency is the fitted concentration of half-maximal effect; tags give direction and shape of the fitted curve.
